According to US20250129160A1 (Amgen, published 2025):
Ends that are not written are not given here.

B1: CCR8 TCE4 scFv CC × I2E × scFc (bispecific antibody)
chain: QVQLVESGGGVVQPGRSLRLSCAASGFTFSSYGMHWVRQAPGKCLEWVAVISYDGSNKYYADSVKGRFTISRDNSKNTLYLQMNSLRAEDTAVYYCARGRYFDWFLFDYWGQGTLVTVSSGGGGQGGGGQGGGGQDTVMTQTPLSLSVTPGQPASISCKSSQSLLHSDGKTYLFWYLQKPGQPPQLLISEVSNRFSGVPDRFSGSGSGTDFTLKISRVEAEDVGFYYCMQSLRLPLTFGCGTKVEIKSGGGGQEVQLVESGGGLVQPGGSLKLSCAASGFTFNKYAINWVRQAPGKGLEWVARIRSKYNNYATYYADAVKDRFTISRDDSKNTVYLQMNNLKTEDTAVYYCARAGNFGSSYISYWAYWGQGTLVTVSSGGGGQGGGGQGGGGQQTVVTQEPSLTVSPGGTVTIT[about 80 residues not given here]FGSGTKLTVLGGGGCPPCPAPELLGGPSVFLFPPKPKDTLMISRTPEVTCVVVDVSHEEPEVKFNWYVDGVEVHNAKTKPCEEQYGSTYRCVSVLTVLHQDWLNGKEYKCKVSNKALPAPIEKTISKAKGQPREPQVYTLPPSREEMTKNQVSLTCLVKGFYPSDIAVEWESNGQPENNYKTTPPVLDSDGSFFLYSKLTVDKSRWQQGNVFSCSVMHEALHNHYTQKSLSLSPGKGGGGQGGGGQGGGGQGGGGQGGGGQGGGGQCPPCPAPELLGGPSVFLFPPKPKDTLMISRTPEVTCVVVDVSHEEPEVKFNWYVDGVEVHNAKTKPCEEQYGSTYRCVSVLTVLHQDWLNGKEYKCKVSNKALPAPIEKTISKAKGQPREPQVYTLPPSREEMTKNQVSLTCLVKGFYPSDIAVEWESNGQPENNYKTTPPVLDSDGSFFLYSKLTVDKSRWQQGNVFSCSVMHEALHNHYTQKSLSLSPGK
notes: single chain; also called CCR8 TCE4 scFv × I2E × scFc; TCE4 CCR8 scFv (CCR8) x scFv (CD3) TCE x scFc
B2: CCR8 TCE1 scFv CC × I2E × scFc (bispecific antibody)
chain: EVQLVESGGGLVKPGGSLRLSCAASGFTFSNARMGWVRQAPGKCLEWVGRIKSKTEGGTRDYAAPVKGRFTISRDDSKNTLYLQMNSLKTEDTAVYYCTSYSGVWGQGTMVTVSSGGGGQGGGGQGGGGQEIVMTQSPDSLAVSLGERATINCKSSQSVLYSSNNKNYLAWYHQKPGQSPKLLISWASTRESGVPDRFSGSGSGTDFTLTINSLQAEDVAVYYCQQYYSIPITFGCGTKVEIKSGGGGQEVQLVESGGGLVQPGGSLKLSCAASGFTFNKYAINWVRQAPGKGLEWVARIRSKYNNYATYYADAVKDRFTISRDDSKNTVYLQMNNLKTEDTAVYYCARAGNFGSSYISYWAYWGQGTLVTVSSGGGGQGGGGQGGGGQQTVVTQEPSLTVSPGGTVTIT[about 80 residues not given here]FGSGTKLTVLGGGGCPPCPAPELLGGPSVFLFPPKPKDTLMISRTPEVTCVVVDVSHEEPEVKFNWYVDGVEVHNAKTKPCEEQYGSTYRCVSVLTVLHQDWLNGKEYKCKVSNKALPAPIEKTISKAKGQPREPQVYTLPPSREEMTKNQVSLTCLVKGFYPSDIAVEWESNGQPENNYKTTPPVLDSDGSFFLYSKLTVDKSRWQQGNVFSCSVMHEALHNHYTQKSLSLSPGKGGGGQGGGGQGGGGQGGGGQGGGGQGGGGQCPPCPAPELLGGPSVFLFPPKPKDTLMISRTPEVTCVVVDVSHEEPEVKFNWYVDGVEVHNAKTKPCEEQYGSTYRCVSVLTVLHQDWLNGKEYKCKVSNKALPAPIEKTISKAKGQPREPQVYTLPPSREEMTKNQVSLTCLVKGFYPSDIAVEWESNGQPENNYKTTPPVLDSDGSFFLYSKLTVDKSRWQQGNVFSCSVMHEALHNHYTQKSLSLSPGK
notes: single chain; also called CCR8 TCE1 scFv × I2E × scFc; TCE1 scFv (CCR8) x scFv (CD3) x scFc
B3: CCR8 TCE3 scFv CC × I2E × scFc (bispecific antibody)
chain: QVQLVESGGGVVQPGRSLRLSCEASGFTFSSYVMHWVRQAPGKCLEWVSVISYDGSSQYYTDSVKGRFTISRDNSKNTLNLQMNSLRAEDTAVYYCVRGRLATAILFDYWGQGTLVTVSSGGGGQGGGGQGGGGQEILMTQTPLSLSVTPGQPASISCKSSQSLLYSDGKTYLFWYLQRPGQPPQLLIYEVSNRFSGVPDRFSGSGSGTDFTLKISRVEAEDVGIYYCMQSIKLPLTFGCGTKVEIKSGGGGQEVQLVESGGGLVQPGGSLKLSCAASGFTFNKYAINWVRQAPGKGLEWVARIRSKYNNYATYYADAVKDRFTISRDDSKNTVYLQMNNLKTEDTAVYYCARAGNFGSSYISYWAYWGQGTLVTVSSGGGGQGGGGQGGGGQQTVVTQEPSLTVSPGGTVTIT[about 80 residues not given here]FGSGTKLTVLGGGGCPPCPAPELLGGPSVFLFPPKPKDTLMISRTPEVTCVVVDVSHEEPEVKFNWYVDGVEVHNAKTKPCEEQYGSTYRCVSVLTVLHQDWLNGKEYKCKVSNKALPAPIEKTISKAKGQPREPQVYTLPPSREEMTKNQVSLTCLVKGFYPSDIAVEWESNGQPENNYKTTPPVLDSDGSFFLYSKLTVDKSRWQQGNVFSCSVMHEALHNHYTQKSLSLSPGKGGGGQGGGGQGGGGQGGGGQGGGGQGGGGQCPPCPAPELLGGPSVFLFPPKPKDTLMISRTPEVTCVVVDVSHEEPEVKFNWYVDGVEVHNAKTKPCEEQYGSTYRCVSVLTVLHQDWLNGKEYKCKVSNKALPAPIEKTISKAKGQPREPQVYTLPPSREEMTKNQVSLTCLVKGFYPSDIAVEWESNGQPENNYKTTPPVLDSDGSFFLYSKLTVDKSRWQQGNVFSCSVMHEALHNHYTQKSLSLSPGK
notes: single chain; also called CCR8 TCE3 scFv × I2E × scFc; TCE3 scFv (CCR8) x scFv (CD3) x scFc

Key:
[1] = target: T1, cynomolgus monkey CCR8 (Chinese origin) (cynomolgus monkey, UniProt O97665 1-356 (rhesus entry)); test: cyno Kd divided by human Kd
T1 construct: on transfected CHO cells; also called cyno CCR8; Cy CCR8

[2] = target: T2, CCR8 P_25-35 peptide construct (human, not fully specified (C-terminus); also: BAP biotinylated in vivo, fused construct pieces' sequences not given here); test: flow cytometry, peptide construct on streptavidin beads, 5 µg/mL
T2 construct: coupled to streptavidin beads; not shown: G4S linker, V5 tag, G4S linker, chicken albumin, then FLAG tag, BAP and H3G each via SG linker
T2 chain: CDAELIQTNGK

[3] = target: T3, CCR8 P_1-12 peptide construct (human, not fully specified (C-terminus); also: BAP biotinylated in vivo, fused construct pieces' sequences not given here); test: as above
T3 construct: coupled to streptavidin beads; not shown: G4S linker, V5 tag, G4S linker, chicken albumin, then FLAG tag, BAP and H3G each via SG linker
T3 chain: MDYTLDLSVTTV

[4] = target: T4, CCR8 P_1-35 peptide construct (full-length N-terminal peptide of human CCR8) (human, BAP biotinylated in vivo); test: as above
T4 construct: from HEK 293 supernatant, coupled to streptavidin beads; not shown: G4S linker, V5 tag, G4S linker, chicken albumin, then FLAG tag, BAP and H3G each via SG linker

[5] = target: T5, CCR8 P_13-24 peptide construct (human, not fully specified (C-terminus); also: BAP biotinylated in vivo, fused construct pieces' sequences not given here); test: as above
T5 construct: coupled to streptavidin beads; not shown: G4S linker, V5 tag, G4S linker, chicken albumin, then FLAG tag, BAP and H3G each via SG linker
T5 chain: TDYYYPDIFSSP

[6] = target: T6, CCR8 P_19-30 peptide construct (human, not fully specified (C-terminus); also: BAP biotinylated in vivo, fused construct pieces' sequences not given here); test: as above
T6 construct: coupled to streptavidin beads; not shown: G4S linker, V5 tag, G4S linker, chicken albumin, then FLAG tag, BAP and H3G each via SG linker
T6 chain: DIFSSPCDAELI

[7] = target: T7, CCR8 P_7-18 peptide construct (human, not fully specified (C-terminus); also: BAP biotinylated in vivo, fused construct pieces' sequences not given here); test: as above
T7 construct: coupled to streptavidin beads; not shown: G4S linker, V5 tag, G4S linker, chicken albumin, then FLAG tag, BAP and H3G each via SG linker
T7 chain: LSVTTVTDYYYP

[8] = target: T1, cynomolgus monkey CCR8 (Chinese origin); test: flow cytometry, CHO cells expressing cynomolgus CCR8
human CCR8 [9] = target: T8, human CCR8 (human, UniProt P51685 1-355); test: flow cytometry, CHO cells expressing human CCR8
T8 construct: on transfected CHO cells or native on HuT 78 / HUT-78 cells; also called hu CCR8

[10] = target: T9, cynomolgus monkey CCR8 (T4R), Mauritian origin (cynomolgus monkey, UniProt O97665 1-356 (rhesus entry)); test: cyno (T4R) Kd divided by human Kd
T9 construct: also called cy CCR8 (T4R); Cy CCR8 (T4R)
T9 chain: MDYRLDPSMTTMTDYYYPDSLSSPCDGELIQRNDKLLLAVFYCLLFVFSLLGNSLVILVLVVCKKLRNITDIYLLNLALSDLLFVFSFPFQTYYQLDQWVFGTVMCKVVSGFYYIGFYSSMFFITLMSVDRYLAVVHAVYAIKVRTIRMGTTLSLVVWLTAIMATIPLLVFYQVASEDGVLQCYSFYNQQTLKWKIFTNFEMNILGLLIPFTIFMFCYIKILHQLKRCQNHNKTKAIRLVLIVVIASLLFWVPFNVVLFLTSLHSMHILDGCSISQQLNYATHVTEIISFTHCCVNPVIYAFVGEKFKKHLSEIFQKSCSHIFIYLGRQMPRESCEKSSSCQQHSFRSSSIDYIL

human CCR8 [11] = target: T8, human CCR8; test: cell-based or functional assay
[12] = target: T9, cynomolgus monkey CCR8 (T4R), Mauritian …; test: flow cytometry, CHO cells expressing cynomolgus CCR8 (T4R)
human CCR8 [13] = target: T8, human CCR8; test: flow cytometry, HuT 78 CD3E-knockout cells, 100 nM TCE, no CCL1
[14] = target: T5, CCR8 P_13-24 peptide construct; test: flow cytometry, peptide construct on streptavidin beads
human CCR8 [15] = target: T8, human CCR8; test: flow cytometry, HuT 78 CD3E-knockout cells, competitor CCL1 200 nM
human CCR8 [16] = target: T8, human CCR8; test: flow cytometry, HuT 78 CD3E-knockout cells, 100 nM TCE after 200 nM CCL1 (competitor)

Row | Binder | Affinity gap Kdcy/Kdhu CCR8 [1] | Median Fluorescence of Sample/Median Fluorescence of Negative Control [2] | Median Fluorescence of Sample/Median Fluorescence of Negative Control [3] | Median Fluorescence of Sample/Median Fluorescence of Negative Control [4] | Median Fluorescence of Sample/Median Fluorescence of Negative Control [5] | Median Fluorescence of Sample/Median Fluorescence of Negative Control [6] | Median Fluorescence of Sample/Median Fluorescence of Negative Control [7] | Kd [8] | Kd (human CCR8 [9]) | Affinity gap Kdcy (T4R)/Kdhu CCR8 [10] | EC50, 48-hour FACS based cytotoxicity assay, HUT-78 (CD3+) (human CCR8 [11]) | Kd [12] | Average Median PE, CCL1-untreated (-CCL1) (human CCR8 [13]) | binding result [14] | Ratio Average Median PE (+CCL1)/Average (-CCL1) (human CCR8 [15]) | Average Median PE, CCL1-treated (+CCL1) (human CCR8 [16])
1 | B1 | 23.9 ratio | 1.1 ratio | 1 ratio | 843 ratio | 746 ratio | 1.1 ratio | 1 ratio | 796 nM | 33.2 nM | 8.06 ratio | 0.265 nM | 268 nM | – | – | – | –
2 | B2 | 2.08 ratio | 1 ratio | 306 ratio | 382 ratio | 1.1 ratio | 1.1 ratio | 1 ratio | 2 nM | 0.96 nM | 194 ratio | 0.0582 nM | 186 nM | 23200 median PE | no binding (tested: 5 µg/mL) | 1 ratio | 23100 median PE
3 | B3 | 103 ratio | 1.1 ratio | 1.1 ratio | 1270 ratio | 1040 ratio | 1.1 ratio | 1 ratio | 705 nM | 6.86 nM | 20.7 ratio | 28.1 nM | 142 nM | – | – | – | –
